B1: Caulobacter ParB omega fusion; a variant is named by its letters at X, in order, B8GW30 (parent)
chain: MESVVVGEPGMSEGRRGLGRGLSALLGEVDAAPAQAPGEQLGGSREAPIEILQRNPDQPRRTFREEDLEDLSNSIREKGVLQPILVRPSPDTAGEYQIVAGERAWRAAQRAGLKTVPIMVRELDDLAVLEIGIIENVQRADLNVLEEALSYKVLMEKFERTQENIAQTIGKSXSHVANXMRLLXLPDEVQSYLVSGELTAXHARAIAAAADPVALAKQIIEGGLSVRETEALARKAPNLSAGKSKGGRPPRVKDTDTQALESDLSSVLGLDVSIDHRGSTGTLTITYATLEQLDDLCNRLTRGI

The full ranking holds about 81,000 sequences; the median of “one-hybrid fitness for binding parS DNA” is about -0.17, and the highest 2% start at about 0.51. Some of the results follow. Some results are limits rather than exact numbers.

The variants in the test derive from B1. As to the kind of experiment: one-hybrid fitness for binding parS DNA (scaled: cognate 1, non-cognate 0); higher = stronger binding. Particulars: with parS DNA site. Summed up: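 On M9-minus-histidine containing 0.1 mM IPTG and 5 mM 3-AT, E. coli USO cells with a HIS3 reporter, site 19 bp from the promoter, grew 48 hours at 37°C to select Caulobacter ParB libraries randomised at four specificity codons. Plasmids from before and after were Illumina-sequenced, with three replicate libraries pooled and variants under 10 reads left out. Fitness is the log change in variant-to-wild-type read ratio, rescaled against cognate and non-cognate.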
On to RSLI, for which the “one-hybrid fitness for binding parS DNA” value was ≤ 0.2.

FVQI: the “one-hybrid fitness for binding parS DNA” value was ≤ 0.2.

Take LPHG: the “one-hybrid fitness for binding parS DNA” value is ≤ 0.2.

Regarding KTSM, the “one-hybrid fitness for binding parS DNA” value is ≤ 0.2. For GYPM the value was ≤ 0.2. As for RWDN, the “one-hybrid fitness for binding parS DNA” value is ≤ 0.2. Under RGYC stands 0.527; under KIKY, ≤ 0.2; under LMLC, ≤ 0.2. For PIYT the value was ≤ 0.2; for EGQR, ≤ 0.2. For VYNM the value was ≤ 0.2; for SICL, ≤ 0.2; for IQDV, ≤ 0.2.

With IQSI, the “one-hybrid fitness for binding parS DNA” value is ≤ 0.2. Under YILC stands ≤ 0.2; under FTYW, ≤ 0.2; under AVRK, ≤ 0.2. Under TYHS stands ≤ 0.2; under GPAY, ≤ 0.2. For LRYC the value was ≤ 0.2. Consider MRIR, for which the “one-hybrid fitness for binding parS DNA” value is ≤ 0.2.

NLTA: the “one-hybrid fitness for binding parS DNA” value was ≤ 0.2.

With LIPK, the “one-hybrid fitness for binding parS DNA” value is ≤ 0.2.

Consider FVVS, for which the “one-hybrid fitness for binding parS DNA” value was ≤ 0.2.

For the variant PSYY, the “one-hybrid fitness for binding parS DNA” value was ≤ 0.2. For SDNS the value was ≤ 0.2; for ACYL, ≤ 0.2. For KFFG the value was ≤ 0.2. For RRVK the value was ≤ 0.2; for WTTR, ≤ 0.2. As to MQRG, the “one-hybrid fitness for binding parS DNA” value is ≤ 0.2.

Regarding FWEL, the “one-hybrid fitness for binding parS DNA” value turned out to be 0.329. For QTFK the value was ≤ 0.2. For AWDL the value was ≤ 0.2.

Consider AVID, for which the “one-hybrid fitness for binding parS DNA” value was determined as 0.231. Turning to INER, the “one-hybrid fitness for binding parS DNA” value was ≤ 0.2. Under QRVE stands ≤ 0.2; under IQIG, ≤ 0.2; under LNLR, ≤ 0.2. Under SMCS stands ≤ 0.2. Under CRGT stands ≤ 0.2; under SMAY, ≤ 0.2; under ECGT, ≤ 0.2. Regarding PNTV, the “one-hybrid fitness for binding parS DNA” value was ≤ 0.2.

For the variant DEPY, the “one-hybrid fitness for binding parS DNA” value is ≤ 0.2.

On to NVWS, for which the “one-hybrid fitness for binding parS DNA” value is ≤ 0.2.

As for EARC, the “one-hybrid fitness for binding parS DNA” value is ≤ 0.2.

EMCF: the “one-hybrid fitness for binding parS DNA” value was ≤ 0.2. For PFRH the value was ≤ 0.2.

RGPR: the “one-hybrid fitness for binding parS DNA” value was ≤ 0.2. For SAYN the value was ≤ 0.2; for FPYD, ≤ 0.2; for FVNA, ≤ 0.2. For IWNL the value was ≤ 0.2; for ACFK, ≤ 0.2; for TCSL, ≤ 0.2. As for GEAS, the “one-hybrid fitness for binding parS DNA” value is ≤ 0.2. For TSAV the value was ≤ 0.2; for NLVG, ≤ 0.2. For SFWG the value was ≤ 0.2. Under DCKR stands ≤ 0.2; under SRFL, ≤ 0.2.

Turning to YYYN, the “one-hybrid fitness for binding parS DNA” value was ≤ 0.2.

In the case of WPHF, the “one-hybrid fitness for binding parS DNA” value was ≤ 0.2.

RANP: the “one-hybrid fitness for binding parS DNA” value is ≤ 0.2.

Turning to TPYT, the “one-hybrid fitness for binding parS DNA” value is ≤ 0.2. Under ERTV stands ≤ 0.2. Take PLGV: the “one-hybrid fitness for binding parS DNA” value was ≤ 0.2. Under VDLG stands ≤ 0.2. Regarding RLMS, the “one-hybrid fitness for binding parS DNA” value turned out to be 1.04. Under ICRM stands ≤ 0.2; under QIQG, ≤ 0.2. In the case of LIPM, the “one-hybrid fitness for binding parS DNA” value was ≤ 0.2. For EPGT the value was ≤ 0.2; for MIQT, ≤ 0.2; for TAFG, ≤ 0.2. Under TKWW stands ≤ 0.2. Under EDTD stands ≤ 0.2.

In the case of QDVL, the “one-hybrid fitness for binding parS DNA” value was ≤ 0.2.

Regarding HATH, the “one-hybrid fitness for binding parS DNA” value is ≤ 0.2.

With RIQA, the “one-hybrid fitness for binding parS DNA” value came to 0.576. Under KCRF stands ≤ 0.2; under AGGW, ≤ 0.2; under GLPD, ≤ 0.2. Under AFPV stands ≤ 0.2; under MRYI, ≤ 0.2.

Take VQHS: the “one-hybrid fitness for binding parS DNA” value was ≤ 0.2. Under PPPG stands ≤ 0.2; under PYWR, ≤ 0.2; under VMTI, ≤ 0.2. For KNQP the value was ≤ 0.2.

For RPIV, the “one-hybrid fitness for binding parS DNA” value was ≤ 0.2. For HQLA the value was ≤ 0.2. As to ELAR, the “one-hybrid fitness for binding parS DNA” value is ≤ 0.2. For DVVD the value was ≤ 0.2; for QCPG, ≤ 0.2.

The values above are taken from a collection of fitness landscapes (doi:10.1016/j.celrep.2020.107928).
